{"source": "ChEMBL document CHEMBL4888484", "about": "“Replenishing the malaria drug discovery pipeline: Screening and hit evaluation of the MMV Hit Generation Library 1 (HGL1) against asexual blood stage Plasmodium falciparum ,using a nano luciferase reporter read-out” (2022)", "note": "In all, about 150,000 compounds went through this assay and about 540 (0.36%) showed an effect of 50% or more. The list shows a part of the results."}
{"test_system": "Plasmodium falciparum", "test": "Primary screen in NF54 nanoGlo assay, in single point, at 2uM, 72h; a lower Z score goes with more inhibition", "type": "functional, Erythrocyte", "conditions": "timepoint 72 hour", "units": {"% Inhibition": "%"}}
{"smiles": "O=C(C1c2ccccc2Oc2ccccc21)N1CCCc2ccccc21", "% Inhibition": 4, "Z score": -0.42}
{"smiles": "Cc1c(CNC(=O)NC[C@H]2CCCN2Cc2ccccc2)cnn1C", "% Inhibition": 2, "Z score": -0.26}
{"smiles": "Cc1ccc(C(N)=O)c(-c2cccc(-c3cc[nH]n3)c2)n1", "% Inhibition": 3, "Z score": -0.36}
{"smiles": "Cc1ccc(C(=O)N2C[C@H](C(=O)O)[C@@H](c3ccc4c(c3)OCO4)C2)s1", "% Inhibition": 6, "Z score": -1.06}
{"smiles": "COc1ccc(CN(C(=O)c2ccc(C)cc2)c2c(C)n(C)n(-c3ccccc3)c2=O)cc1", "% Inhibition": -4, "Z score": 0.49}
{"smiles": "CCn1cc(CNC(=O)[C@@H]2CC(Cc3ccc(F)cc3)=NO2)cn1", "% Inhibition": 0, "Z score": 0.05}
{"smiles": "Cc1ccccc1CCNC(=O)c1cn(C(c2ccccc2)c2ccccc2)nn1", "% Inhibition": -3, "Z score": 0.3}
{"smiles": "Nc1nnc([C@@]23COC[C@@H]2CN(Cc2cc(F)cc(Cl)c2)C3)o1", "% Inhibition": 0, "Z score": 0.04}
{"smiles": "Cn1ccnc1CC[C@H]1CCCCN1Cc1cc(F)ccc1Cl", "% Inhibition": -13, "Z score": 1.78}
{"smiles": "CCC(=O)N1CCC[C@H]1C(=O)NCc1ccc2[nH]cnc2c1", "% Inhibition": -3, "Z score": 0.62}
{"smiles": "C[C@H]1CCCN(CCn2cc(-c3cnc(-c4cccs4)nc3)nn2)C1", "% Inhibition": -23, "Z score": 2.8}
{"smiles": "COc1ccc(-c2ccc(C(C)C)nn2)cn1", "% Inhibition": -5, "Z score": 0.89}
{"smiles": "Cc1cc(C)cc(CCC(=O)NCCS(C)(=O)=O)c1", "% Inhibition": -12, "Z score": 2.34}
{"smiles": "Cn1c(=O)c(-c2nc(-c3ccc(F)c(Br)c3)no2)c(O)c2ccccc21", "% Inhibition": -2, "Z score": 0.26}
{"smiles": "O=C(N[C@@H]1CN(Cc2cccc(Cl)c2)C[C@H]1CO)C1CCC1", "% Inhibition": -4, "Z score": 0.61}
{"smiles": "Cc1noc(CN[C@@H](C)c2cccc(OC(C)C)c2)n1", "% Inhibition": -13, "Z score": 1.67}
{"smiles": "O=C(Nc1ccccc1C(=O)N1CCN2C(=O)NC(=O)[C@@H]2C1)c1cccs1", "% Inhibition": -3, "Z score": 0.33}
{"smiles": "O=C(CC1CCCC1)NC[C@@H]1C[C@H](F)CN1C(=O)CCn1ccccc1=O", "% Inhibition": 5, "Z score": -1.02}
{"smiles": "C[C@H](NCC(=O)N1CCOCC1)c1nc(Cc2ccccc2)no1", "% Inhibition": -1, "Z score": 0.07}
{"smiles": "CCN(CCc1ccncc1)c1ccc(N)cn1", "% Inhibition": -14, "Z score": 1.85}
{"smiles": "O=C(NCCc1ccccc1)c1cnn2ncccc12", "% Inhibition": -8, "Z score": 1.12}
{"smiles": "Cc1cnc(NC(=O)Cc2csc(C)n2)c(Br)c1", "% Inhibition": -9, "Z score": 0.9}
{"smiles": "Cc1nn(CC(=O)N2CCNC(=O)[C@@H]2c2cccc(F)c2)c(C)c1C", "% Inhibition": -14, "Z score": 1.33}
{"smiles": "CCOc1cncc(N2CC[C@H](OC)C(C)(C)C2)n1", "% Inhibition": -15, "Z score": 1.9}
{"smiles": "CN1CCN(S(=O)(=O)NCCCC[C@H]2CCCO2)CC1", "% Inhibition": -1, "Z score": 0.23}
{"smiles": "C[C@@H](Cc1cccnc1)N1C(=O)N(C)C(C)(C)C1=O", "% Inhibition": -11, "Z score": 2.03}
{"smiles": "CC(C)Oc1cccc(NC(=O)C2CCN(S(=O)(=O)Cc3cccc(Cl)c3)CC2)c1", "% Inhibition": -10, "Z score": 1.57}
{"smiles": "Cc1cc(C)c2nccc(N3CCN(C4CCN(C)CC4)[C@@H](CCO)C3)c2c1", "% Inhibition": 9, "Z score": -1.26}
{"smiles": "CCN=C(NCC)NC[C@@H](c1cccs1)N(C)C", "% Inhibition": -2, "Z score": 0.19}
{"smiles": "COc1cc(F)ccc1S(=O)(=O)N[C@@H]1Cc2ccccc2[C@H]1N", "% Inhibition": -8, "Z score": 1.51}
{"smiles": "CCc1nnc(CNc2ccc(F)c(CC)c2)o1", "% Inhibition": 4, "Z score": -0.42}
{"smiles": "Cc1n[nH]cc1CN(C)C1CCN(c2ccc3c(c2)OCO3)CC1", "% Inhibition": -29, "Z score": 2.97}
{"smiles": "CNc1nc(NCC2C(C)(C)C2(C)C)ncc1F", "% Inhibition": -20, "Z score": 1.81}
{"smiles": "Cc1nnc(C2(c3ccc(Cl)cc3)CCOCC2)o1", "% Inhibition": 3, "Z score": -0.48}
{"smiles": "C(=Cc1ccco1)CNC[C@@H]1COc2ccccc2C1", "% Inhibition": -8, "Z score": 1.32}
{"smiles": "COc1ccc(-c2ncnc3[nH]ccc23)c(OC)c1OC", "% Inhibition": -3, "Z score": 0.6}
{"smiles": "CN(C)c1nc(N)nc(CN2CCCC2CC(O)c2ccccc2)n1", "note": "(configuration not stated)", "% Inhibition": -5, "Z score": 0.96}
{"smiles": "Cc1cc(N[C@@H]2COCC[C@@H]2OCCO)nc(C)c1C#N", "% Inhibition": -3, "Z score": 0.54}
{"smiles": "N#Cc1ccc(Nc2ccc3c(c2)CC(=O)N3)nc1", "% Inhibition": -11, "Z score": 1.18}
{"smiles": "CCCN(Cc1cc(NC(=O)C2CCC2)ccc1N(C)C)C(=O)C(C)(C)C", "% Inhibition": -15, "Z score": 2.12}
{"smiles": "CC[C@H]1CN(C(=O)CN2CCCCc3ccc(OC)cc32)CCO1", "% Inhibition": 3, "Z score": -0.25}
{"smiles": "CC(C)Oc1ccc(CN2C(=O)CC[C@@]2(C)C(=O)NCc2ccccc2)cc1", "% Inhibition": -8, "Z score": 0.88}
{"smiles": "CC(C)CC(=O)c1c[nH]c(C(=O)C(Cl)(Cl)Cl)c1", "% Inhibition": -3, "Z score": 0.38}
{"smiles": "Cc1cc(N2CCC(C(=O)NCc3ccccn3)CC2)n2nc(C)cc2n1", "% Inhibition": -5, "Z score": 0.9}
{"smiles": "COCCOc1ncccc1-c1noc([C@@H]2CCCN2c2ncccn2)n1", "% Inhibition": -6, "Z score": 0.94}
{"smiles": "CCCCc1nc(CN2CCC[C@H](N(C)CCc3ccccn3)C2)c[nH]1", "% Inhibition": -12, "Z score": 1.59}
{"smiles": "CCN1CN(CC(=O)N[C@@H](Cc2ccccc2)c2ccccc2)CC1=O", "% Inhibition": -5, "Z score": 0.88}
{"smiles": "CS(=O)(=O)N(Cc1nnc2n1CCOCC2)CC1CCC(F)(F)CC1", "% Inhibition": -14, "Z score": 2.14}
{"smiles": "CC(C)(C)OC(=O)N1CCN2C(=O)c3ccc(-c4ccccc4)cc3OCC[C@@H]3CC[C@H](O)[C@@H](CNC(=O)[C@@H]2C1)O3", "% Inhibition": 15, "Z score": -1.95}
{"smiles": "CN(C)c1cncc(NC(=O)C2CC3(CC3)C2)c1", "% Inhibition": -6, "Z score": 1.18}
{"smiles": "COc1cc(=O)n(-c2ccccc2)cc1C(=O)N1CCC(n2ccnn2)CC1", "% Inhibition": -16, "Z score": 2.71}
{"smiles": "CCN1C(=O)Cc2cc(NC(=O)Cc3ccc(F)cc3)ccc21", "% Inhibition": -4, "Z score": 0.5}
{"smiles": "COc1ccc(CC(=O)N2CC[C@H](Oc3ncccn3)C2)cc1C", "% Inhibition": -6, "Z score": 1.14}
{"smiles": "Cn1cccc(C(=O)N2CCC(n3ccnn3)CC2)c1=O", "% Inhibition": -16, "Z score": 2.06}
{"smiles": "Cc1nc(NC2CCCCC2)c2c(C)noc2n1", "% Inhibition": -8, "Z score": 0.95}
{"smiles": "CCC(=O)N(Cc1ccccc1)Cc1c(-c2ccccc2)noc1N1CCCC1", "% Inhibition": -12, "Z score": 1.55}
{"smiles": "Cc1noc(C)c1CN(C)C(=O)CCCc1ccccc1", "% Inhibition": -6, "Z score": 0.82}
{"smiles": "Cc1ccc(NC(=O)CN2CCN(C(=O)Nc3ccc(Br)cc3)CC2=O)c(C)c1", "% Inhibition": -1, "Z score": 0.1}
{"smiles": "CCc1cnc(C)nc1N[C@@H](C)c1cccc(OC)c1", "% Inhibition": -20, "Z score": 2.67}
{"smiles": "Fc1ccc(OCCNC2CCN(CC(F)F)CC2)c(F)c1", "% Inhibition": -18, "Z score": 1.93}
{"smiles": "O=C1ON(c2ccccc2)[C@@H](c2ccc3c(c2)OCO3)N1c1ccc(Cl)cc1", "% Inhibition": -5, "Z score": 0.74}
{"smiles": "Cc1nccn1C1CN(C(=O)C2CCCCC2)C1", "% Inhibition": -14, "Z score": 1.7}
{"smiles": "Brc1ccc(CN2CCOC(C3CCCO3)C2)o1", "note": "(configuration not stated)", "% Inhibition": -15, "Z score": 2.02}
{"smiles": "Cc1ccc(N2C[C@@H](C(=O)N3CCC4(CC3)NC(=O)NC4=O)CC2=O)cc1", "% Inhibition": 7, "Z score": -0.94}
{"smiles": "Cc1cccc(NC(=O)N2CCN(c3nc(-c4cccc(F)c4)nc(C)c3Cc3ccccc3)CC2)c1", "% Inhibition": 10, "Z score": -1.24}
{"smiles": "C[C@@H](CC(=O)Nc1cnccn1)c1ccc(F)cc1F", "% Inhibition": -19, "Z score": 1.92}
{"smiles": "CCN1C(C(=O)N2CCOCC2)=C(OCc2ccccc2)c2ccccc2S1(=O)=O", "% Inhibition": 6, "Z score": -0.7}
{"smiles": "Cn1cc([C@@H]2CCCN2CC2=Nc3ccccc3S(=O)(=O)N2)cn1", "% Inhibition": -18, "Z score": 2.99}
{"smiles": "C[C@H]1CCN(Cc2coc3ccccc23)CCS1(=O)=O", "% Inhibition": 7, "Z score": -0.7}
{"smiles": "CC1=NN(Cc2ccccc2)C(=O)[C@H]1C(=O)Nc1ccccn1", "% Inhibition": -19, "Z score": 2.42}
{"smiles": "Cc1coc(-c2ccc(C)c(NC(=O)NCc3cc(C)on3)c2)n1", "% Inhibition": -11, "Z score": 1.15}
{"smiles": "CCc1ccc(C(=O)Nc2nc(C)nn2C)o1", "% Inhibition": 3, "Z score": -0.59}
{"smiles": "CCNC(=O)Nc1nnc(-c2ccco2)o1", "% Inhibition": 7, "Z score": -0.75}
{"smiles": "CCn1cc(S(=O)(=O)N2CC3CN(c4ccccc4)CC3C2)cn1", "note": "(configuration not stated)", "% Inhibition": -2, "Z score": 0.36}
{"smiles": "COc1cnc(NC(=O)c2occc2CN2c3ccccc3C[C@@H]2C)cn1", "% Inhibition": -13, "Z score": 1.5}
{"smiles": "COc1ccccc1C1(CNc2ncnc3nc[nH]c23)CCOCC1", "% Inhibition": -2, "Z score": 0.39}
{"smiles": "CCCS(=O)(=O)N1CCC(F)(F)[C@@H](COCc2cccnc2)C1", "% Inhibition": -3, "Z score": 0.58}
{"smiles": "CC1=NS(=O)(=O)N(C)C=C1C(=O)OCc1c(F)cccc1Cl", "% Inhibition": 2, "Z score": -0.37}
{"smiles": "CC(C)N1CCC[C@H](C(=O)NCCc2noc(C3CCCC3)n2)C1", "% Inhibition": -2, "Z score": 0.36}
{"smiles": "CCN(CC)c1cc(CCC(=O)NC2CCCC2)ccn1", "% Inhibition": 0, "Z score": 0.08}
{"smiles": "CCn1nc(CO)c2c1CCN(C(=O)c1ccc3[nH]nnc3c1)C2", "% Inhibition": -15, "Z score": 1.43}
{"smiles": "Cc1nc[nH]c1CN(Cc1nccn1C)C1CC1", "% Inhibition": -11, "Z score": 1.4}
{"smiles": "CC1CC(C)CN(S(=O)(=O)Cl)C1", "note": "(configuration not stated)", "% Inhibition": -13, "Z score": 1.49}
{"smiles": "Cc1nc(-c2ccccc2)sc1[C@H](C)NC(=O)C1(C)CCOCC1", "% Inhibition": -1, "Z score": 0.06}
{"smiles": "C[C@H]1Cc2cc(Br)cc3c(=O)c(C(=O)NC4CCCCCCC4)cn1c23", "% Inhibition": -3, "Z score": 0.42}
{"smiles": "COc1cccc(C(=O)N[C@H]2CCC23CCOCC3)c1", "% Inhibition": -6, "Z score": 0.89}
